Consider 89 compounds from PMC4336329 (PLoS ONE, 2015).

Molecules are shown by their SMILES. Hit rate of the full screen: of about 310,000 compounds, about 2,200 (0.71%) showed an effect of 50% or more. The effect is printed as a negative number. This is one part of the list.

human ether-à-go-go-related gene (hERG) potassium channel, sequence (Q12809 whole entry, looked up): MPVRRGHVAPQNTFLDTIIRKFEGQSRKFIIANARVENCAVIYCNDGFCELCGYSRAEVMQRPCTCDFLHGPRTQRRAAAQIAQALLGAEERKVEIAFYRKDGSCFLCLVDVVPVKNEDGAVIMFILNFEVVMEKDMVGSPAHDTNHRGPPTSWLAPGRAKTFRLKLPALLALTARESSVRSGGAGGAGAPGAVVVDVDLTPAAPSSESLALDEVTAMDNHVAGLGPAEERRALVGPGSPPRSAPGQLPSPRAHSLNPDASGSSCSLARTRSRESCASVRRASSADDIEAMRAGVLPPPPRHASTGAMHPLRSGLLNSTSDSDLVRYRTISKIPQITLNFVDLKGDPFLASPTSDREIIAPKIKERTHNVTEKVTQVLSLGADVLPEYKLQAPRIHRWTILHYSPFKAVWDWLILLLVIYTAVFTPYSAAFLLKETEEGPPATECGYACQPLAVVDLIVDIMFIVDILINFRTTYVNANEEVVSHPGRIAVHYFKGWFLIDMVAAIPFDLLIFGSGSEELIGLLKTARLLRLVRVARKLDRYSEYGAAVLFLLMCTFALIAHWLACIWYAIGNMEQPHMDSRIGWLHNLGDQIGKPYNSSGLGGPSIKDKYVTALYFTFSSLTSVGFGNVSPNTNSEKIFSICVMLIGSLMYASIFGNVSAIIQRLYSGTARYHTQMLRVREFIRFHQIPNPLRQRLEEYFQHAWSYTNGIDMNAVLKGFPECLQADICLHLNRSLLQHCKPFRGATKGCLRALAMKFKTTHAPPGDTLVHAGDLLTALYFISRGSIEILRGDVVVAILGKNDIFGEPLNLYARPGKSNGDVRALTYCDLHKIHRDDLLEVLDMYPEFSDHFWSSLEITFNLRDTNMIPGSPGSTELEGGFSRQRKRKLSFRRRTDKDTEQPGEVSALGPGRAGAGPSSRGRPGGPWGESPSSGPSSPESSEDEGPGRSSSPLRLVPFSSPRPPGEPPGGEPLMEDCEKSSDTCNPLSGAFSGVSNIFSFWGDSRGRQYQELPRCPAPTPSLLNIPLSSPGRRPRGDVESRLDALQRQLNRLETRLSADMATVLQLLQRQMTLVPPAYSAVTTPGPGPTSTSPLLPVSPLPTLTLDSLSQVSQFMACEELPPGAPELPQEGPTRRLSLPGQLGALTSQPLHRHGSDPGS

This assay concerns the target human ether-à-go-go-related gene (hERG) potassium channel (human, UniProt Q12809). As to the kind of experiment: primary screen, population patch clamp on CHO cells stably expressing hERG.
Consider `CCN(CC)C(=O)c1[nH]cnc1C(=O)NCc1ccc(CNC(=O)OC(C)(C)C)cc1`, for which the “hERG current change (%, negative = inhibition) at 1uM” value is 19.9%.
Next, `C=CCOc1cccc(NC(=O)c2ccccc2SC)c1`: 11.1%; `O=C(CCCc1ccccc1)N1CCc2ccccc21`: 13.7%.
Next, `O=C(O)C1C2C=CC(O2)C1C(=O)Nc1ccccc1C(F)(F)F` (centres unmarked): 0.541%.
For `CC1=Nc2cc(C(=O)NCCN3CCOCC3)ccc2Sc2c(C)ccc(C)c21`, the “hERG current change (%, negative = inhibition) at 1uM” value is reported as 15%.
As to `COc1cccc(CN2CC(C(=O)NCCCCc3ccccn3)CCC2=O)c1` (centres unmarked), the “hERG current change (%, negative = inhibition) at 1uM” value turned out to be 7.17%.
In the case of `Cc1c(C2C(C#N)=C(N)N(c3ccccc3C#N)C3=C2C(=O)CCC3)cnn1C` (centres unmarked), the “hERG current change (%, negative = inhibition) at 1uM” value turned out to be 7.52%.
As to `CN1CCCC(OC(=O)c2ccc(C(C)(C)C)cc2)C1.Cl` (centres unmarked), the “hERG current change (%, negative = inhibition) at 1uM” value is 15%.
Turning to `CCOP(=O)(OCC)c1nc(-c2ccc(Br)cc2)oc1N1CCCCC1`, the “hERG current change (%, negative = inhibition) at 1uM” value was -14%.
Take `CN1CCC(NC(=S)Nc2cccc([N+](=O)[O-])c2)CC1`: the “hERG current change (%, negative = inhibition) at 1uM” value amounted to 16%.
In the case of `CCC(C)(C)NC(=O)C(c1cccn1C)N(C(=O)Cn1nnc2ccccc21)c1ccccc1OC` (centres unmarked) it was 1.68%; in that of `COc1ccc(S(=O)(=O)Oc2ccc3c(c2)O/C(=C\c2cccnc2)C3=O)cc1`, 0.695%.
For the compound `CCOc1ccc(C(=O)Nc2cc(C)on2)cc1OCC`, the “hERG current change (%, negative = inhibition) at 1uM” value turned out to be 13.1%.
In the case of `COc1cc([N+](=O)[O-])ccc1NC(=O)NNC(=O)CCc1ccccc1` it was 9.02%.
As to `CCN(CC)CCN(C)C(=O)c1ccc(OC2CCN(C(=O)C3CC3)CC2)cc1`, the “hERG current change (%, negative = inhibition) at 1uM” value stood at 6.4%.
As to `COc1ccc(C2NC(=O)C(C)S2)cc1` (centres unmarked), the “hERG current change (%, negative = inhibition) at 1uM” value is 8.75%.
Next, `CCCCOc1ccc(CONS(=O)(=O)c2ccc(NC(C)=O)cc2)cc1Cl`: 13.9%; `CC(=O)Nc1ccc(OCC(O)CN2C(C)CCCC2C)cc1.Cl` (centres unmarked): 15.2%.
In the case of `Cc1cccc(CN2CCN(Cc3ccc(-n4cccn4)cc3)CC2CCO)n1` (centres unmarked) it was -1.6%; in that of `CCOC(=O)c1cc(-c2ccc(N)cc2)sc1N`, -4.02%; in that of `Cc1c(Br)c([N+](=O)[O-])nn1CC(=O)NC1CCCCCC1`, 8.97%.
Next, `Cc1ccc(C)c(NC(=O)CSc2nnc(-c3ccncc3)n2N)c1`: 11%; `CN1C(=O)/C(=C/c2cccc(Cl)c2)Sc2ccc(C(=O)N3CCOCC3)cc21`: -9.05%.
As to `CCOC1=C/C(=C/c2c(N)n3nc(CC(=O)N4CCCC4)sc3nc2=O)C=CC1=O`, the “hERG current change (%, negative = inhibition) at 1uM” value amounted to 12.4%.
In the case of `Cc1ccc(C=Nc2ccccc2C(N)=O)o1`, the “hERG current change (%, negative = inhibition) at 1uM” value stood at 10.2%.
With `CN(CC(=O)Nc1ccc(F)c(F)c1F)C(=O)CN1C(=O)NC2(CCCC2)C1=O`, the “hERG current change (%, negative = inhibition) at 1uM” value was determined as 4.75%.
Regarding `O=C(Nc1nncs1)C12CC3CC(CC(Cl)(C3)C1)C2`, the “hERG current change (%, negative = inhibition) at 1uM” value was determined as 13.6%.
In the case of `CCCCNC(=O)CN(C1CCCCC1)S(C)(=O)=O` it was 8.87%; in that of `Cc1cccc(NC(=O)CCCC(=O)OC(C)C(=O)c2ccccc2)c1` (centres unmarked), 11.2%.
`Cc1ccc2cc(C=O)c(Cl)nc2c1`: the “hERG current change (%, negative = inhibition) at 1uM” value worked out at 7.01%.
Turning to `CN(C)S(=O)(=O)c1ccc(NC(=O)CSc2nc3ccccc3n2-c2ccccc2)cc1`, the “hERG current change (%, negative = inhibition) at 1uM” value stood at 14.5%.
Turning to `Cc1ccccc1C1=N/C(=C/c2cccnc2)C(=O)O1`, the “hERG current change (%, negative = inhibition) at 1uM” value was 8.44%.
In the case of `CC(=O)NC(=S)Nc1cc(C(=O)O)ccc1Cl` it was 4.7%; in that of `O=C(NCC(=O)N(CC1CCCO1)C1(C(=O)NC2CCCC2)CCCCC1)c1ccccc1` (centres unmarked), 7.47%.
In the case of `CC(C)C(c1nnnn1Cc1ccc2c(c1)OCO2)N1CCN(C)CC1.Cl` (centres unmarked), the “hERG current change (%, negative = inhibition) at 1uM” value is -1.23%.
`Cc1cccc(OCC(=O)N/N=C\c2cn(C)c3ccccc23)c1`: the “hERG current change (%, negative = inhibition) at 1uM” value worked out at 6.95%.
Consider `COCCOC(=O)C1=C(C)N=C2SCCC(=O)N2C1/C=C/c1ccccc1` (centres unmarked), for which the “hERG current change (%, negative = inhibition) at 1uM” value is recorded as -3.18%.
Regarding `CC(C)CNC(=O)CN(c1cccc(Cl)c1)S(C)(=O)=O`, the “hERG current change (%, negative = inhibition) at 1uM” value is on record as 18.9%.
In the case of `CCOc1ccc(-n2cc(C(=O)Nc3cccc(Cl)c3)c3cc(OC)c(OC)cc3c2=O)cc1` it was 0.151%.
`CCC(=O)Nc1ccc2nc(SCC(=O)N3CCCC3)sc2c1`: the “hERG current change (%, negative = inhibition) at 1uM” value is given as -2.75%.
Regarding `CC(C)OP(=O)(OC(C)C)C(Nc1ccccc1)c1cccc([N+](=O)[O-])c1` (centres unmarked), the “hERG current change (%, negative = inhibition) at 1uM” value turned out to be 12%.
`N#Cc1cccc(NC(=O)Cn2c3[n+](c4ccc(C(F)(F)F)cc42)CCCCC3)c1.[Cl-]`: the “hERG current change (%, negative = inhibition) at 1uM” value is given as 1.96%.
Regarding `NC(=O)CSc1nnc(Cc2csc(Nc3ccccc3)n2)n1Cc1ccccc1`, the “hERG current change (%, negative = inhibition) at 1uM” value is reported as 5.15%.
As for `O=C(NNC1CC(=O)N(c2ccc(Cl)cc2)C1=O)c1ccccn1` (centres unmarked), the “hERG current change (%, negative = inhibition) at 1uM” value was 5.81%.
Turning to `CCCCc1c(C)nc2ccccc2c1SCCC(=O)O`, the “hERG current change (%, negative = inhibition) at 1uM” value was 9.45%.
On to `O=C1c2cccc(Cl)c2C(=O)c2c1cccc2N1CCCC1`, for which the “hERG current change (%, negative = inhibition) at 1uM” value worked out at 6.17%.
As to `Cc1cccc(OCC(=O)NNC(=O)C2CCN(c3ncnc4sc(C)c(C)c34)CC2)c1`, the “hERG current change (%, negative = inhibition) at 1uM” value came out at 4.58%.
As for `O=C(Oc1ccc(N(C(=O)c2ccncc2)S(=O)(=O)c2cccs2)cc1)c1ccncc1`, the “hERG current change (%, negative = inhibition) at 1uM” value is 11.4%.
In the case of `COC(=O)c1ccc(NC(=O)N2CCCC(C(=O)c3ccccc3OC)C2)cc1` (centres unmarked) it was 5.54%; in that of `CCOc1cc(/C=N\NC(=O)C2C(=O)NCC2c2ccccc2)ccc1OC` (centres unmarked), 10%.
As for `COc1ccc(Nc2nc(C)cc(C)c2C#N)c(OC)c1`, the “hERG current change (%, negative = inhibition) at 1uM” value was 19.2%.
On to `Cc1ccccc1NC(=O)Cc1nc(-c2ccc3ccccc3c2)cs1`, for which the “hERG current change (%, negative = inhibition) at 1uM” value was 8.13%.
In the case of `Cc1ccccc1C(=O)Nc1ccc(N2CCOCC2)nc1` it was -7.62%; in that of `CCC12CN3CC(CC)(CN(C1)C3c1cccnc1)C2=O` (centres unmarked), 2.69%; in that of `Cn1nnnc1SCC(=O)N1c2ccccc2Sc2ccccc21`, 7.6%.
Next, `COc1ccc(OC)c(CNC(=O)c2ccc(C)c(NC(=O)C3=C(C)OCCS3)c2)c1`: 8.54%; `CCOC(=O)c1ccccc1NC(=O)c1c(O)[nH]c(=S)[nH]c1=O`: 12.3%.
For the compound `Cc1ccc2c(c1)CCCN2C(=O)c1cccs1`, the “hERG current change (%, negative = inhibition) at 1uM” value was -2.83%.
Next, `COc1cccc(-c2nnc3sc(-c4cccs4)nn23)c1`: 9.55%.
In the case of `O=C(COc1ccc(-c2nnco2)cc1)N1CCN(S(=O)(=O)c2ccc3ccccc3c2)CC1` it was 5.97%; in that of `COc1ccc(CCNC(=S)Nc2ccc(C(C)C)cc2)cc1`, 12.8%; in that of `C#CCNC(=O)C1=C[C@@H](C2CCCCC2)C[C@@H](OCCCCO)O1`, 11.7%.
Consider `NS(=O)(=O)c1cccc(NC(=O)COC(=O)CCCc2c[nH]c3ccccc23)c1`, for which the “hERG current change (%, negative = inhibition) at 1uM” value came to 13.9%.
Next, `Cl.N=c1n(CCN2CCOCC2)c2ccccc2n1CC(O)COc1ccccc1` (centres unmarked): -3.77%.
Next, `CCc1ccc(N(C)S(=O)(=O)c2ccc3[nH]cc(C(=O)NCCN4CCOCC4)c(=O)c3c2)cc1`: 4.01%; `O=C(CN1CCCC1=O)NC1(C(F)(F)F)NC(=O)N(Cc2ccccc2)C1=O` (centres unmarked): 17.9%; `CC(C)n1c(S(=O)(=O)O)nc2ccccc21`: 21.1%.
`c1cnc2ccc(C(c3nnnn3C3CCCC3)N3CCN(c4nc5ccccc5s4)CC3)cc2c1` (centres unmarked): the “hERG current change (%, negative = inhibition) at 1uM” value is reported as -10.4%.
For `CCc1ccc(N2CN(Cc3ccco3)CNC2=S)cc1`, the “hERG current change (%, negative = inhibition) at 1uM” value is on record as 13.3%.
As to `COc1ccc2[nH]cc(C(=O)CN(C)C)c2c1`, the “hERG current change (%, negative = inhibition) at 1uM” value was determined as 11.4%.
On to `O=C(NNC(=O)c1cc2cc(OC(F)(F)F)ccc2[nH]1)c1ccc(Cl)cc1`, for which the “hERG current change (%, negative = inhibition) at 1uM” value was determined as 5.26%.
In the case of `CC(=O)Nc1cccc2c1C(=O)N(c1ccc(C)cc1)C2=O` it was 5.25%.
Next, `COC(=O)c1cc(Br)c(=O)n(Cc2ccc(OC)c(OC)c2)c1`: 16.7%.
Turning to `COc1ccc(CCNC(=O)Cn2cnc3c(cnn3C(C)(C)C)c2=O)cc1OC`, the “hERG current change (%, negative = inhibition) at 1uM” value came to 3.2%.
Regarding `O=C(c1ccccc1)c1c(-c2ccccc2)[nH]n(-c2ccccc2)c(=O)c1=O`, the “hERG current change (%, negative = inhibition) at 1uM” value stood at 13%.
Regarding `CC(=O)NC(CCS(C)(=O)=O)C(=O)Nc1cc(Cl)ccc1Cl` (centres unmarked), the “hERG current change (%, negative = inhibition) at 1uM” value was 4.45%.
In the case of `O=C(CCl)N(c1ccccc1)C1CCCCC1` it was 10.1%.
Regarding `COc1ccc([N+](=O)[O-])cc1N(CC(=O)Nc1ccccc1C(=O)N1CCOCC1)S(C)(=O)=O`, the “hERG current change (%, negative = inhibition) at 1uM” value is 4.57%.
In the case of `CC1CC(C)(C)NC(=S)N1CCC(=O)Nc1ccc2c(c1)OCCO2` (centres unmarked) it was 14.9%.
In the case of `O=C(Nc1ccc(F)cc1)OCCOc1ccc([N+](=O)[O-])cc1` it was -9.28%.
`Cc1cc(C)n(-c2nc3ccccc3c(=O)n2OCc2ccc(Cl)cc2)n1`: the “hERG current change (%, negative = inhibition) at 1uM” value was 5.48%.
In the case of `COc1cccc(C(=O)Oc2ccc3ccc(=O)oc3c2)c1` it was 30.3%; in that of `CC(C)CNC(=O)CC(NCC(C)C)C(=O)O` (centres unmarked), 11.1%.
Take `CN(CCO)S(=O)(=O)c1ccc2c(c1)C(=NO)c1cc(S(=O)(=O)N(C)CCO)ccc1-2`: the “hERG current change (%, negative = inhibition) at 1uM” value is 6.54%.
In the case of `O=c1c(F)cn(C2CCCO2)c(=O)n1Cc1c(F)cccc1Cl` (centres unmarked) it was -1.74%; in that of `CC(C)[C@H](NC(=O)c1ccco1)C(=O)N(C)Cc1c(F)cccc1Cl`, 8.51%.
Regarding `CCN1C(=C2C(=O)c3ccccc3C2=O)C=Cc2ccccc21`, the “hERG current change (%, negative = inhibition) at 1uM” value stood at 2.71%.
On to `Cn1c(=O)c2c(nc(SCC(=O)N3CCCCCC3)n2C)n(C)c1=O`, for which the “hERG current change (%, negative = inhibition) at 1uM” value came to 1.5%.
Next, `O=C(NC(=S)Nc1ccc(N2CCOCC2)cc1)c1cncc(Br)c1`: 20.4%.
